# Data as given in the supplement of paper PMC11417369.
# This is one part of the list.
# Tested on: PfAP2-HC AP2 domain (GST-tagged)
# Assay: gcPBM binding intensity (ln(normalized median fluorescence intensity)); higher = stronger DNA binding
# How it was run: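 Binding of GST-tagged P. falciparum DNA-binding domains, expressed in E. coli and used at about 25 μg on average, was carried out for 1 h in 1× PBS containing 1% milk, 0.2 mg/ml BSA, 0.5% salmon testes DNA and 0.03% Triton X-100. The target was an Agilent 4 × 180k array of primer-extended double-stranded 36-bp intergenic genomic probes plus negative controls, read with Alexa488 anti-GST antibody at 488 nm. Binding intensity is the highest Masliner-normalised natural-log median intensity across replicate spots of either probe orientation.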
row,Sequence,gcPBM binding intensity (ln)
1,AGATAGATACATACACGTACATATATATATACACAT [XGTACX_site4755],9.88
2,TTTATGGATGTGTATGCATGCCTAAATAAATATATG [TGCATGCA_site916],9.63
3,ACGACATATGGATGATGTACTATCTTTATTATACAT [XGTACX_site6857],9.77
4,TCTCAAAAAAAAAAAAAAAAAAAAAAATTAAAAAAT [CACACA_negctrl_site1120],9.15
5,TAAATAATGTAAAAAACATCATCAAAATGTTAATTA [CACACA_negctrl_site1768],9.51
6,TAGAATAAACCAAGAAGTACTGTTTAATGAAAAGTA [XGTACX_site5712],9.71
7,ATACCTAAAAAATATACACACATATTTATAAATATA [CACACA_site7260],9.81
8,ATATATTATATGTACACACACATATAAGGGATTATA [CACACA_site5],10.1
9,TATAAATATATATATACACACACATACACAAAAAAA [CACACA_site9191],10.5
10,AAAAATATGAAGACACAATATAGAAATAAAAATATA [XGTACX_negctrl_site244],9.73
11,TATTACTTGATATATACACACATATAACATAAATGC [CACACA_site7783],9.75
12,TATTATAATATGTAGCGTACATTTTTTCTTTCTTTT [XGTACX_site7831],9.69
13,AAAATAACATAAAAGAGTACTAAACCAAGATCAAAT [XGTACX_site7973],9.96
14,TATATTTATATTCTTACATTTTTTATGTTTTTTTTT [CACACA_negctrl_site1017],9.74
15,TAAACAGACATATAAACACACATATAAACCGACATA [CACACA_site2478],10.3
16,GTCATATTATTCTTTTCACACACGCGTTAATAATAA [CACACA_site9302],10.6
17,TATATATAATATTTTTCACACACCATTTCCTTAAAC [CACACA_site1341],9.96
18,TTTTTTTTTTTTTTTTGTACATAATAAATGTTCTTA [XGTACX_site6754],9.04
19,TGTATCTATAATAAAACACACATTTTTAATGTGCTC [CACACA_site6788],9.7

row,Sequence,gcPBM binding intensity (ln)
1,ATAAATCAAATGCACACACACAAAAAAAAAAAAAAA [CACACA_site6221],10.4
2,TACAAAAATATATAAACACACAAATATAATATATAT [CACACA_site2942],9.88
3,TAATAAATGACAAATTAACACACATATATTATATAT [CACACA_site9294],9.82
4,CGCTCTCTTTAATATTGTACATATATATTATATATA [XGTACX_site7017],9.8
5,AATAAATAGAAAGAGGTGCTACATTATATTATTTAT,9.68
6,TTATACGAAGTACGTACACACACTTATATGTTACTA [CACACA_site4019],10.1
7,AATATATGTATATCCACACACATATATATATATATA [CACACA_site1633],9.96
8,TATTTTGTATTCATTTGTCACATATAATAGATAGGA [TGCATGCA_negctrl_site9],9.4
9,ATAGATATAACATATGCATGTAAAATATAACCACTC [TGCATGCA_site60],9.97
10,TGTGCGGAAATAAGTGCACACATAGATATATGTATT [CACACA_site9227],10.2
11,ACATATTTATATGTCTGTACAAATATGCAATTTTTT [XGTACX_site5516],9.66
12,TTAGATAGATTTGTACGTACTTATTATAACGTATCA [XGTACX_site5067],9.5
13,AATTTATAAATAATTAATTTGATAAATTATAAAGGG [GTGCAC_negctrl_site544],9.49
14,AAAAAAAAAAAAAACACACATACATACATACATATA [CACACA_site4121],10.4
15,ATATTTATAACTTGGTGTACTTTGAAAAAAAAAAAA [XGTACX_site5194],9.4
16,ATAATTTTTTAGATCACACATATAAATAAATAAATA [CACACA_site5175],9.47
17,TTATATTAGCCGATGGTGCATATATTTATAGGAAAA [GTGCAC_site9518],9.33
18,GGATAATCATACGAAGCATGCTGAATTTCCAAATAA [TGCATGCA_site1013],9.5
19,AAAAAAATTAAATGGGGTACAATAAGGGTCAAATAT [XGTACX_site8669],10.1

row,Sequence,gcPBM binding intensity (ln)
1,TTTTATTATATATATTGTACATATATTTTTATTTTT [XGTACX_site1564],9.85
2,AAAAAAAAAAATGGCTGTACATAATATTTAAATAGG [XGTACX_site4286],9.67
3,GTTATATGAACTTATATACACACCATTTTTGTAAAT [CACACA_site695],9.78
4,AAATCATATTCTTATTTTATTTTTTTTATTTTTTAT [XGTACX_negctrl_site166],9.65
5,TGTAGATATTTTTGGGGTACTTTATAAAGAACTAGT [XGTACX_site5635],9.42
6,TTACATATATTGGGGTGTACATATATTTTCCTTCAC [XGTACX_site6224],9.82
7,AAAAAAAAAAAAAAAAGTACACATAATTGTATATGT [XGTACX_site6339],9.61
8,AAATATTGTTTTTTATGTACTTATTTTTATTTATTT [XGTACX_site3481],9.8
9,ATGAAAAAGTGCTGGATTCTAAAGAAAAAAAAAAAA [CACACA_negctrl_site962],9.52
10,ATAAAATCAACAAATCAGGATGTCACGTAAATATCA [CACACA_negctrl_site1009],10
11,ATATTTTATATATTTGTGCACAATATTATAATATAT,9.68
12,GAAAAACAAATATATTAACACACAAACATATAAACA [CACACA_site9315],10.2
13,GTTTATTTTTTCATTTGTACACATAAATAAATATAT [XGTACX_site7752],9.77
14,GGTATATATTCTATCACACATATTTCCATGAAAATA [CACACA_site4728],9.58
15,TTAATTATATTATGCACACACAATTGGAAAAAAAAT [CACACA_site1958],9.95
16,TATTTAGAAATAAATACACACATACATTTTTGTATA [CACACA_site4557],9.81
17,AAAAAAAAGAAAAAAACACACAATGGAAAAAATGTA [CACACA_site3675],10.2
18,ACGTTAGGCTTATTTGCACACTTGTATTAAAATTTT [CACACA_site4854],9.83
